Test results reported in the supplement of paper PMC4466236.
Over roughly 33,000 sequences, “E-score (dimensionless, -0.5 to 0.5)” has its median near -0.058; the highest 2% begin near 0.35. This is one part of the list.

These sequences were tested on MvaT (assay: PBM 8-mer E-score (mean of HK and ME arrays) (E-score (dimensionless, -0.5 to 0.5)); higher = stronger relative binding preference; most listed sequences are background and not binding sites).
Method in brief: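 Reported values are rank-based E-scores, taken as the mean of two universal arrays and parsed with a custom script. Each 8-mer score falls between -0.5 and 0.5. The arrays, ME and HK, were double-stranded 60-mers with a constant 25-mer primer region and a variable 35-mer region covering all 8-mers. They were probed, by an earlier protocol, with full-length P. aeruginosa MvaT carrying an N-terminal glutathione S-transferase fusion.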

Sequence	PBM 8-mer E-score
ACATTCAA	0.146
ACTCAGAA	0.00761
AGGTTAAT	0.164
AACGAGGG	-0.321
CTTATCTC	0.00961
CAGACCTG	-0.192
GAGACAAC	-0.128
AAAGCAGT	0.00971
AGGATTAG	-0.157
AAGGTGCG	-0.187
CCGGGACA	-0.176
GCTGTACC	-0.139
GGTCGTAA	-0.0429
ACTCTCTG	-0.0379
ATTTGTTC	0.206
CGCACGCC	-0.277
ATCCGATA	0.0518
GGGTATCA	-0.0926
CACGACAA	-0.107
CTCCCCTC	-0.281
AAGTACAA	0.278
AGAGGACT	-0.116
AGGTTTAC	0.0368
GACGTGTA	0.037
AACACGAA	0.0234

Sequence	PBM 8-mer E-score
CTCCCGGA	-0.00501
AAGATGCG	-0.0218
CTCTTTTC	0.0776
CTGAGAAA	0.0752
CTATGAAC	-0.0591
GAAGGCTA	-0.222
AGTAGTCA	0.0445
CGGATCCA	-0.213
GCTGAAAA	0.118
AACACCAC	-0.0122
AAAGACCC	-0.224
ATCAGCAA	-0.103
ATGCTTGA	0.0424
ACTGGAGA	-0.108
ATCACAAG	-0.0473
TCGATCCA	-0.213
ATGCGCGA	-0.0161
TATAACCA	0.318
CTAAAGTC	0.0796
CCTGGAGC	-0.0686
ACTATTAC	0.32
CATAGGCC	-0.229
CTACATAA	0.123
GTTGCAAC	0.157
ACGGCCGG	-0.0486

Sequence	PBM 8-mer E-score
TAAGCGAA	0.0597
AATCTTGC	-0.098
ACATTTGA	0.0624
AAGAAACC	0.0106
ACACGTTC	-0.178
TGACATCA	-0.211
ACCATCGA	-0.169
GTCAGCAA	-0.0186
AGCCATTA	0.0493
AATGCCGG	-0.0327
TAATTAGA	0.353
GCGATCAC	-0.161
AAAAATAT	0.377
ACTCGCCC	-0.141
GGCTCAAA	-0.00695
CCAACCTC	-0.181
AGACCAAC	-0.0497
CAAGGATG	-0.0011
AAGAGCTA	0.102
CTTGGCGA	-0.121
GACTTTGC	0.127
GACGGATC	-0.215
AATACGTG	0.22
AGTATCTC	0.0463
AAAACATA	0.354

Sequence	PBM 8-mer E-score
GCTTTAAC	-0.0229
ATAAATTG	0.369
ATTGATTG	0.116
AAAACGTA	0.142
CGTTCACC	-0.181
CCATTCCC	-0.0958
CGTGAACG	-0.218
CTAGGATA	0.0479
ACGCTATG	-0.101
GGACCCAA	-0.123
GCTATTCA	0.062
TAACCGTA	0.137
AGTCCGGG	-0.222
CGTCGCCA	-0.175
CTGCCTAC	-0.187
ATCCAGGG	-0.18
CGGGTGAA	-0.0314
GGCCGGAC	-0.215
GCCAGCTA	-0.199
GAGAGAAA	-0.00143
CCCGCGCG	-0.255
GCGGGGTA	-0.189
AATCGCCC	-0.185
AGGATCAT	-0.000626
AGCCCGGG	-0.207

Sequence	PBM 8-mer E-score
AACTCGTG	0.0448
AAACTGTT	0.222
AACATTCT	0.137
CTGGACAC	-0.122
CAGAAGAA	-0.0363
AATCCAGA	0.102
ATGCGGCG	-0.147
GTCCTGAA	0.0353
CTATTCCA	0.112
TCGGACGA	-0.174
ACTAAAAT	0.39
AGCAACTG	-0.123
CGGTCATA	-0.0151
AAGCACGT	0.0308
TAGCAAGA	-0.104
ATTTGGAC	0.0323
GCTACTAC	-0.113
CCGCGACA	-0.0527
ATTACCCC	0.0674
GCAATCAA	0.196
TACAATGA	0.137
GGTGAGGA	-0.155
CTAAATAA	0.365
CCAGATGG	-0.281
CCATCTAC	-0.0528

Sequence	PBM 8-mer E-score
CTCGACGC	-0.138
TAAGATTA	0.211
CTGTACAC	0.000633
ACGTTCAC	-0.151
ACTATAGC	0.085
CGGAAATC	0.0137
AATGGCAA	0.0523
AGACGCTA	-0.147
CCCGCCTC	-0.176
CCCGGAAG	-0.224
CATAGAGA	0.0529
CCGGACAG	-0.102
ACCACCGC	-0.0733
CAATTACA	0.288
CCTAGCAC	-0.283
AATGACAC	-0.0902
GGTAGGAC	-0.0621
AGGTCACG	-0.245
ATATTAGC	0.352
ATAGCGGC	-0.00235
GGCACTCA	-0.06
ATAGGGAA	0.064
CGACAAGA	-0.106
CTCACTCA	-0.0753
TGCGCGCA	-0.105

Sequence	PBM 8-mer E-score
ATCCTTCC	-0.122
ATGGCTCG	-0.0679
CAGCATGC	-0.307
GAAGCCAA	-0.0473
AGAACTAC	0.129
CACCGCTG	-0.148
GAATGCAC	-0.254
ACCCGCTC	-0.211
ATGGATCG	-0.146
GCTGCTCA	-0.235
CACAAGAG	-0.0406
CGCAAAGA	-0.0963
ATTAATGC	0.341
AGTTTCAG	0.0952
ACCGGTCT	-0.0498
AAGGACGC	-0.207
ATGAAAAA	-0.00382
CCGGACCC	-0.195
CAGTTAAG	0.0695
ACGGCTAC	-0.249
ACCAACGT	-0.193
CGTGAAGC	-0.218
